# Source: the supplement of paper PMC8728848
# Some of the results follow.
# B1: CFEM-PPm (Pichia pastoris), F2QPV1 (protein)
# chain: AVATPPACLLACAAEVVKESSDCDALNNIQCICENEGSAIHACLESTCPDGLSSTALQSFEDVCE
# Assays:
# Test in all cases: glycan array binding signal (z-score within array); higher = stronger binding
# Conditions in all cases: glycan notation: IUPAC condensed, linker removed
# [1] = biological target: GlcNAc(b1-3)Gal(b1-4)GlcNAc(b1-3)Gal(b1-4)GlcNAc(b1-3)Gal(b1-4)GlcNAc(b1-3)Gal(b1-4)GlcNAc(b1-2)[GlcNAc(b1-3)Gal(b1-4)GlcNAc(b1-3)Gal(b1-4)GlcNAc(b1-3)Gal(b1-4)GlcNAc(b1-3)Gal(b1-4)GlcNAc(b1-6)]Man(a1-6)[GlcNAc(b1-3)Gal(b1-4)GlcNAc(b1-3)Gal(b1-4)GlcNAc(b1-3)Gal(b1-4)GlcNAc(b1-3)Gal(b1-4)GlcNAc(b1-2)Man(a1-3)]Man(b1-4)GlcNAc(b1-4)[Fuc(a1-6)]GlcNAc
# Procedure, shortened: (§1)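 Glycan array binding is given as a within-array Z-score, which can be read as non-binding when negative. The arrays, 3228 of them, came from the Consortium for Functional Glycomics database and were retained only where the protein sequence was available. Z-scores were averaged across arrays of the same protein sequence at different concentrations or buffers and across linkers.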
# [2] = biological target: GlcNAc(b1-3)Gal(b1-4)GlcNAc(b1-3)Gal(b1-4)GlcNAc(b1-3)GalNAc
# Procedure, shortened: as §1
# [3] = biological target: GlcNAc(b1-3)Gal(b1-4)GlcNAc(b1-3)GalNAc
# Procedure, shortened: as §1
# [4] = biological target: GlcNAc(b1-3)Gal(b1-4)GlcNAc(b1-3)[GlcNAc(b1-3)Gal(b1-4)GlcNAc(b1-3)]GalNAc
# Procedure, shortened: as §1
# [5] = biological target: GlcNAc(b1-3)Gal(b1-4)GlcNAc(b1-6)[Gal(b1-3)]GalNAc
# Procedure, shortened: as §1
# [6] = biological target: GlcNAc(b1-3)Gal(b1-4)GlcNAc(b1-6)[GlcNAc(b1-3)Gal(b1-3)]GalNAc
# Procedure, shortened: as §1
# [7] = biological target: GlcNAc(b1-3)Gal(b1-4)GlcNAc(b1-6)[GlcNAc(b1-3)]Gal(b1-4)GlcNAc
# Procedure, shortened: as §1
# [8] = biological target: GlcNAc(b1-3)GalNAc
# Procedure, shortened: as §1
# [9] = biological target: GlcNAc(b1-3)Man
# Procedure, shortened: as §1
# [10] = biological target: GlcNAc(b1-3)[GlcNAc(b1-4)][GlcNAc(b1-6)]GlcNAc
# Procedure, shortened: as §1
# [11] = biological target: GlcNAc(b1-3)[GlcNAc(b1-6)]Gal(b1-4)GlcNAc
# Procedure, shortened: as §1
# [12] = biological target: GlcNAc(b1-3)[GlcNAc(b1-6)]GalNAc
# Procedure, shortened: as §1
# [13] = biological target: GlcNAc(b1-4)Gal(b1-4)GlcNAc
# Procedure, shortened: as §1
# [14] = biological target: GlcNAc(b1-4)GlcNAc
# Procedure, shortened: as §1
# [15] = biological target: GlcNAc(b1-4)GlcNAc(b1-4)GlcNAc
# Procedure, shortened: as §1
# [16] = biological target: GlcNAc(b1-4)GlcNAc(b1-4)GlcNAc(b1-4)GlcNAc(b1-4)GlcNAc
# Procedure, shortened: as §1
# [17] = biological target: GlcNAc(b1-4)GlcNAc(b1-4)GlcNAc(b1-4)GlcNAc(b1-4)GlcNAc(b1-4)GlcNAc
# Procedure, shortened: as §1
# [18] = biological target: GlcNAc(b1-4)[GlcNAc(b1-6)]GalNAc
# Procedure, shortened: as §1
# [19] = biological target: GlcNAc(b1-6)Gal(b1-4)GlcNAc
# Procedure, shortened: as §1
# [20] = biological target: GlcNAc(b1-6)GalNAc
# Procedure, shortened: as §1
# [21] = biological target: GlcNAc6S(b1-3)Gal(b1-4)GlcNAc
# Procedure, shortened: as §1
# [22] = biological target: Kdn(a2-3)Gal(b1-3)GalNAc
# Procedure, shortened: as §1
# [23] = biological target: Kdn(a2-3)Gal(b1-3)GlcNAc
# Procedure, shortened: as §1
# [24] = biological target: Kdn(a2-3)Gal(b1-4)Glc
# Procedure, shortened: as §1
# [25] = biological target: Kdn(a2-3)Gal(b1-4)GlcNAc
# Procedure, shortened: as §1
# [26] = biological target: Kdn(a2-3)Gal(b1-4)[Fuc(a1-3)]GlcNAc
# Procedure, shortened: as §1
# [27] = biological target: Kdn(a2-6)Gal(b1-4)GlcNAc
# Procedure, shortened: as §1
# [28] = biological target: Man(a1-2)Man(a1-2)Man(a1-3)Man
# Procedure, shortened: as §1
# [29] = biological target: Man(a1-2)Man(a1-2)Man(a1-6)[Man(a1-3)]Man
# Procedure, shortened: as §1
# [30] = biological target: Man(a1-2)Man(a1-3)Man
# Procedure, shortened: as §1
# [31] = biological target: Man(a1-2)Man(a1-3)[Man(a1-2)Man(a1-6)]Man
# Procedure, shortened: as §1
# [32] = biological target: Man(a1-2)Man(a1-3)[Man(a1-2)Man(a1-6)]Man(a1-6)[Man(a1-2)Man(a1-2)Man(a1-3)]Man
# Procedure, shortened: as §1
# [33] = biological target: Man(a1-2)Man(a1-3)[Man(a1-2)Man(a1-6)]Man(a1-6)[Man(a1-2)Man(a1-2)Man(a1-3)]Man(b1-4)GlcNAc(b1-4)GlcNAc
# Procedure, shortened: as §1
# [34] = biological target: Man(a1-2)Man(a1-3)[Man(a1-6)]Man(a1-6)[Man(a1-2)Man(a1-3)]Man(b1-4)GlcNAc(b1-4)GlcNAc
# Procedure, shortened: as §1
# [35] = biological target: Man(a1-2)Man(a1-6)[Man(a1-3)]Man(a1-6)[Man(a1-2)Man(a1-2)Man(a1-3)]Man
# Procedure, shortened: as §1
# [36] = biological target: Man(a1-2)Man(a1-6)[Man(a1-3)]Man(a1-6)[Man(a1-2)Man(a1-2)Man(a1-3)]Man(b1-4)GlcNAc(b1-4)GlcNAc
# Procedure, shortened: as §1
# [37] = biological target: Man(a1-3)[Man(a1-6)]Man
# Procedure, shortened: as §1
# [38] = biological target: Man(a1-3)[Man(a1-6)]Man(a1-6)[Man(a1-2)Man(a1-3)]Man(b1-4)GlcNAc(b1-4)GlcNAc
# Procedure, shortened: as §1
# [39] = biological target: Man(a1-3)[Man(a1-6)]Man(a1-6)[Man(a1-3)]Man
# Procedure, shortened: as §1
# [40] = biological target: Man(a1-3)[Man(a1-6)]Man(a1-6)[Man(a1-3)]Man(b1-4)GlcNAc(b1-4)GlcNAc
# Procedure, shortened: as §1
# [41] = biological target: Man(a1-3)[Man(a1-6)]Man(b1-4)GlcNAc(b1-4)GlcNAc
# Procedure, shortened: as §1
# [42] = biological target: Man(a1-3)[Man(a1-6)]Man(b1-4)GlcNAc(b1-4)[Fuc(a1-6)]GlcNAc
# Procedure, shortened: as §1
# [43] = biological target: Man(a1-6)Man
# Procedure, shortened: as §1
# [44] = biological target: Man(b1-4)GlcNAc
# Procedure, shortened: as §1
# [45] = biological target: MurNAc(b1-4)GlcNAc
# Procedure, shortened: as §1
binder,measurement,setting,value
B1,glycan array binding signal (z-score),[1],-0.222
same,glycan array binding signal (z-score),[2],-0.268
same,glycan array binding signal (z-score),[3],-0.088
same,glycan array binding signal (z-score),[4],-0.333
same,glycan array binding signal (z-score),[5],0.543
same,glycan array binding signal (z-score),[6],-0.173
same,glycan array binding signal (z-score),[7],-0.353
same,glycan array binding signal (z-score),[8],-0.344
same,glycan array binding signal (z-score),[9],-0.171
same,glycan array binding signal (z-score),[10],-0.165
same,glycan array binding signal (z-score),[11],-0.302
same,glycan array binding signal (z-score),[12],-0.272
same,glycan array binding signal (z-score),[13],-0.189
same,glycan array binding signal (z-score),[14],-0.195
same,glycan array binding signal (z-score),[15],-0.364
same,glycan array binding signal (z-score),[16],-0.176
same,glycan array binding signal (z-score),[17],-0.155
same,glycan array binding signal (z-score),[18],0.016
same,glycan array binding signal (z-score),[19],0.015
same,glycan array binding signal (z-score),[20],-0.258
same,glycan array binding signal (z-score),[21],-0.076
same,glycan array binding signal (z-score),[22],-0.084
same,glycan array binding signal (z-score),[23],-0.285
same,glycan array binding signal (z-score),[24],-0.334
same,glycan array binding signal (z-score),[25],-0.212
same,glycan array binding signal (z-score),[26],0.034
same,glycan array binding signal (z-score),[27],-0.26
same,glycan array binding signal (z-score),[28],0.539
same,glycan array binding signal (z-score),[29],-0.242
same,glycan array binding signal (z-score),[30],-0.359
same,glycan array binding signal (z-score),[31],-0.318
same,glycan array binding signal (z-score),[32],-0.291
same,glycan array binding signal (z-score),[33],-0.361
same,glycan array binding signal (z-score),[34],-0.316
same,glycan array binding signal (z-score),[35],-0.278
same,glycan array binding signal (z-score),[36],-0.15
same,glycan array binding signal (z-score),[37],-0.217
same,glycan array binding signal (z-score),[38],-0.074
same,glycan array binding signal (z-score),[39],-0.289
same,glycan array binding signal (z-score),[40],-0.222
same,glycan array binding signal (z-score),[41],-0.119
same,glycan array binding signal (z-score),[42],-0.233
same,glycan array binding signal (z-score),[43],-0.261
same,glycan array binding signal (z-score),[44],-0.358
same,glycan array binding signal (z-score),[45],0.011
